{
  "source": "PubChem BioAssay AID445",
  "about": "(National Center for Advancing Translational Sciences (NCATS), 2006)",
  "note": "The campaign covered roughly 110,000 compounds. About 40 (0.04%) were called active. The inconclusive results got no clear call from the source; some entries with a clear call stand among them for comparison. Calls follow the shape of the dose curve; as a rule, active = well fitted curve in the direction sought with a large enough effect in the signal ratio (not every such curve was filed as active); inconclusive = small, poorly fitted or top-dose-only effect, or a change in a side signal; inactive = flat fitted curve, though single readings scatter; the % refers to the signal ratio. A potency beside an inconclusive call is a rough fit, not a confirmed value. Potency is read from the fitted curve at half-maximal effect.",
  "data": [
    {"assay": "IkB Signaling;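 as to IkBa stabilization activation: 0% = basal untreated cells and 100% = reference inhibitor full response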", "details": "ABC-DLBCL IkBa-CBG/CBR dual luciferase ratio (green luciferase fused to IkBa over red control in OCI-Ly3 lymphoma cells), 4 h; IkBa stabilization activation: at 57.1 µM (top of the series), scaled: untreated 0%, proteasome inhibitor 100% unless noted", "outline": "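In this assay, an IκBα–CBG68 fusion accumulates when IKK-driven degradation is blocked; native CBR normalizes for cell number. OCI-Ly3 cells were treated 4 h with compound and doxycycline, then green and red light read after Chroma-Glo addition.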", "values": [
      {"molecule": "COc1cc(S(=O)(=O)N2CCN(Cc3ccccc3)CC2)ccc1Br", "IkBa stabilization activation": "inconclusive: 7.3% [signal inhibitor]"},
      {"molecule": "CC(=O)c1ccc(NC(=O)CSc2cn(CC(=O)N3CCCCCC3)c3ccccc23)cc1", "IkBa stabilization activation": "inconclusive: -1.78% [signal inhibitor]"},
      {"molecule": "COc1ccc(-c2cc(C(=O)NCc3ccc(F)cc3)c3c(-c4ccc(F)cc4)[nH]nc3n2)cc1OC", "IkBa stabilization activation": "inconclusive: 2.42% [signal inhibitor]"},
      {"molecule": "COc1ccc(NC(=O)CSc2oc(-c3ccco3)nc2S(=O)(=O)c2ccc(Br)cc2)c(OC)c1", "IkBa stabilization activation": "inconclusive: 4.52% [signal inhibitor]"},
      {"molecule": "CCc1ccc2oc(-c3cc(NC(=O)C(C)C)cc(C)c3O)nc2c1", "IkBa stabilization activation": "inconclusive: 0.164% [signal inhibitor]"},
      {"molecule": "COCCn1c(=O)c(-c2ccc(F)cc2)nc2cncnc21", "IkBa stabilization activation": "inactive: 0.717% [at 11.4 µM, scaled: untreated 0%, proteasome inhibitor 100%]"},
      {"molecule": "CC(C)Cn1c(=O)c2sccc2n2c(CCCC(=O)NCc3ccccc3Cl)nnc12", "IkBa stabilization activation": "inactive"},
      {"molecule": "CS(=O)c1ccc(-c2nc(-c3ccc(F)cc3)c(-c3ccncc3)[nH]2)cc1", "note": "(configuration not stated)", "IkBa stabilization activation": "inactive"},
      {"molecule": "CCOC(=O)CNC(=O)c1cn(CC)c(=O)c2cc(OC)c(OC)cc12", "IkBa stabilization activation": "inactive"},
      {"molecule": "COc1ccc(NC(=O)CSCc2cnn(-c3ccccc3)c2-n2cccc2)cc1", "IkBa stabilization activation": "inactive"},
      {"molecule": "CCn1ccc2cc(S(=O)(=O)N3CCC(C(=O)NCCc4ccc(C)cc4)CC3)ccc21", "IkBa stabilization activation": "inconclusive: 6.07% [signal inhibitor]"},
      {"molecule": "CCOC(=O)Cc1ccc(NS(=O)(=O)c2ccc(SC)cc2)cc1", "IkBa stabilization activation": "inconclusive: 5.78% [signal inhibitor]"},
      {"molecule": "CN1CCC[C@H](C(=O)OCC(=O)[C@]2(O)CC[C@@H]3[C@H]4CCC5=CC(=O)CC[C@@]5(C)[C@H]4[C@@H](O)C[C@]32C)C1", "IkBa stabilization activation": "inactive: 4.06% [at 11.4 µM, scaled: untreated 0%, proteasome inhibitor 100%]"},
      {"molecule": "COc1cc(OC)cc(C(=O)NCC(c2cccs2)S(=O)(=O)c2ccc(F)c(C)c2)c1", "note": "(configuration not stated)", "IkBa stabilization activation": "inconclusive: 6.54% [signal inhibitor]"},
      {"molecule": "COc1ccccc1NC(=O)CN1C(=O)C2(SCC(=O)N2c2ccc(C)c(C)c2)c2ccccc21", "note": "(configuration not stated)", "IkBa stabilization activation": "inconclusive: 11.1% [signal inhibitor]"},
      {"molecule": "NS(=O)(=O)c1ccc(NC(=O)c2ccc3c(c2)CCN3S(=O)(=O)c2ccccc2)cc1", "IkBa stabilization activation": "inconclusive: 3.7% [signal inhibitor]"},
      {"molecule": "COC(=O)C(CCSC)NC(=O)c1c(C)oc2ncn(CC(C)C)c(=O)c12", "note": "(configuration not stated)", "IkBa stabilization activation": "inactive"},
      {"molecule": "Cc1ccc(NC(=O)C(=O)NCC(c2cccnc2)N2CCN(C)CC2)cc1F", "note": "(configuration not stated)", "IkBa stabilization activation": "inconclusive: 0.124% [signal inhibitor]"},
      {"molecule": "CCOC(=O)c1ccc(NC(=O)c2ccc3c(c2)NC(=O)c2ccccc2S3)cc1", "IkBa stabilization activation": "inactive"},
      {"molecule": "COc1ccc(CNC(=O)c2cccc(-n3cnc4cccnc43)c2C)cc1", "IkBa stabilization activation": "inactive"},
      {"molecule": "CCOc1ccc(NC(=O)Cn2ccn(-c3ccc(F)c(F)c3)c(=O)c2=O)cc1", "IkBa stabilization activation": "inconclusive: 2.85% [signal inhibitor]"},
      {"molecule": "Cc1cc(NC(=O)CSc2nnc(Cc3cccn3C)n2CCc2ccccc2)no1", "IkBa stabilization activation": "inactive"},
      {"molecule": "COc1cc2ccccc2cc1C(=O)Nc1ccc(Cl)c(-c2nc3ccccc3o2)c1", "IkBa stabilization activation": "inconclusive: 7.81% [signal inhibitor]"},
      {"molecule": "Cc1ccc(N2C(=O)c3[nH]nc(-c4ccc(Cl)cc4)c3C2c2ccc(F)cc2)cc1", "note": "(configuration not stated)", "IkBa stabilization activation": "inconclusive: 7.4% [signal inhibitor]"},
      {"molecule": "CCOc1cc(NS(C)(=O)=O)c(OCC)cc1NC(=O)c1cccs1", "IkBa stabilization activation": "inconclusive: 0.889% [signal inhibitor]"},
      {"molecule": "Nc1ncnc2c1ncn2[C@H]1O[C@@H](C(=O)O)[C@@H](O)[C@H]1O", "IkBa stabilization activation": "inactive: -0.92% [at 11.4 µM, scaled: untreated 0%, proteasome inhibitor 100%]"},
      {"molecule": "O=C(O)[C@H]([C@H]1NCCS1)N1C(=O)c2ccccc2C1=O", "IkBa stabilization activation": "inactive: 0.834% [at 11.4 µM, scaled: untreated 0%, proteasome inhibitor 100%]"},
      {"molecule": "c1ccc(CCCc2nc(-c3ccccn3)no2)cc1", "IkBa stabilization activation": "inconclusive: 11.9% [signal inhibitor]"},
      {"molecule": "Cc1cc2ncn(C(=O)c3c(-c4c(Cl)cccc4Cl)noc3C)c2cc1C", "Potency": "inconclusive: 25.1 µM [rising, partial curve]"},
      {"molecule": "Nc1ccc2ncccc2c1", "IkBa stabilization activation": "inactive"},
      {"molecule": "COc1ccc(CNC(=O)c2cc3c(s2)-c2ccccc2OC3)cc1", "IkBa stabilization activation": "inconclusive: 5.65% [signal inhibitor]"},
      {"molecule": "O=C(Nc1nc2ccc(F)cc2s1)c1nc(S(=O)(=O)Cc2ccccc2)ncc1Cl", "IkBa stabilization activation": "inactive"},
      {"molecule": "O=C(c1ccc2c(c1)N(Cc1ccc(Cl)cc1)C(=O)c1ccccc1S2(=O)=O)N1CCCCC1", "IkBa stabilization activation": "inconclusive: 2.08% [signal inhibitor]"},
      {"molecule": "CC(C)c1ccc(C2N=C(N)Nc3nc4ccccc4n32)cc1", "note": "(configuration not stated)", "IkBa stabilization activation": "inconclusive: 5.75% [signal inhibitor]"},
      {"molecule": "CCOc1ccc(-c2[nH]ncc2Oc2cccc(OC)c2)c(O)c1", "IkBa stabilization activation": "inactive"},
      {"molecule": "Cc1c(Cl)cccc1NC(=O)C(C)n1nnc2sc3c(c2c1=O)CCCC3", "note": "(configuration not stated)", "IkBa stabilization activation": "inconclusive: -0.574% [signal inhibitor]"},
      {"molecule": "Cc1c(C)n(C)c2ccc(C(=O)N3CCN(c4ccccc4)CC3)cc12", "IkBa stabilization activation": "inconclusive: 0.643% [signal inhibitor]"},
      {"molecule": "CSc1ncc(Cl)c(C(=O)N(Cc2ccc(N(C)C)cc2)Cc2ccco2)n1", "IkBa stabilization activation": "inconclusive: -2.57% [signal inhibitor]"},
      {"molecule": "COc1ccc2[nH]cc(CCNc3ccnc(-c4ccccc4Cl)n3)c2c1", "IkBa stabilization activation": "inactive: 1.7% [at 11.4 µM, scaled: untreated 0%, proteasome inhibitor 100%]"},
      {"molecule": "Cc1cc(C)cc(NC(=O)Cn2c(=O)c3ccccc3n3nncc23)c1", "IkBa stabilization activation": "inconclusive: 1.14% [signal inhibitor]"},
      {"molecule": "Cc1ccc2c(=O)cc(C(=O)Nc3ccc(S(=O)(=O)N4CCCCCC4)cc3)oc2c1C", "IkBa stabilization activation": "inconclusive: -2.13% [signal inhibitor]"},
      {"molecule": "CCCCOc1ccc(CNC(=O)CCCN2C(=O)CSc3c2c(C)nn3-c2ccccc2)cc1", "IkBa stabilization activation": "inconclusive: 14.8% [signal inhibitor]"}
    ]}
  ]
}
